{"source": "the supplement of paper PMC8728848", "binders": {"B1": {"name": "MGL2 (Mus musculus), Q8JZN1 (protein)", "chain": "MTMRYENFQNLEREEKNQEMRNGDKKGGMESPKFALIPSQSFLWRILSWTHLLLFSLGLSLLLLVVISVIGSQNSQLRRDLGTLRAILDNTTSKIKAEFQSLDSRADNFEKGISSLKVDVEDHRQELQAGRDLSQKVTSLESTLEKREQALKTDLSDLTDHVQQLETDLKALTCQLANLKNNGSEVACCPLHWTEHEGSCYWFSESEKSWPEADKYCRLENSHLVVVNSLEEQNFLQNRLANVLSWMGLTDQNGPWRWVDGTDFDKGFKNWRPLQPDNWHGHMLGGGEDCAHFSYDGRWNDDVCQRHYHWICETELGKASSAHSPQLIASVP"}}, "test_in_all_cases": "glycan array binding signal (z-score within array); higher = stronger binding", "conditions_in_all_cases": "glycan notation: IUPAC condensed, linker removed", "key": {"[1]": {"molecular_target": "Gal(b1-4)GlcNAc(b1-3)Gal(b1-3)GlcNAc", "how_it_was_run": "(§1)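 The Consortium for Functional Glycomics database supplied 3228 glycan arrays, of which those lacking an available protein sequence were dropped. The binding signal, a within-array Z-score, was averaged across arrays of the same protein sequence and across linkers. Negative scores can be read as non-binding.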"}, "[2]": {"molecular_target": "Gal(b1-4)GlcNAc(b1-3)Gal(b1-4)Glc", "how_it_was_run": "as §1"}, "[3]": {"molecular_target": "Gal(b1-4)GlcNAc(b1-3)Gal(b1-4)GlcNAc", "how_it_was_run": "as §1"}, "[4]": {"molecular_target": "Gal(b1-4)GlcNAc(b1-3)Gal(b1-4)GlcNAc(b1-2)Man(a1-3)[Gal(b1-4)GlcNAc(b1-3)Gal(b1-4)GlcNAc(b1-2)Man(a1-6)]Man(b1-4)GlcNAc(b1-4)GlcNAc", "how_it_was_run": "as §1"}, "[5]": {"molecular_target": "Gal(b1-4)GlcNAc(b1-3)Gal(b1-4)GlcNAc(b1-2)Man(a1-3)[Gal(b1-4)GlcNAc(b1-3)Gal(b1-4)GlcNAc(b1-2)Man(a1-6)]Man(b1-4)GlcNAc(b1-4)[Fuc(a1-6)]GlcNAc", "how_it_was_run": "as §1"}, "[6]": {"molecular_target": "Gal(b1-4)GlcNAc(b1-3)Gal(b1-4)GlcNAc(b1-2)[Gal(b1-4)GlcNAc(b1-3)Gal(b1-4)GlcNAc(b1-6)]Man(a1-6)[Gal(b1-4)GlcNAc(b1-3)Gal(b1-4)GlcNAc(b1-2)Man(a1-3)]Man(b1-4)GlcNAc(b1-4)GlcNAc", "how_it_was_run": "as §1"}, "[7]": {"molecular_target": "Gal(b1-4)GlcNAc(b1-3)Gal(b1-4)GlcNAc(b1-2)[Gal(b1-4)GlcNAc(b1-3)Gal(b1-4)GlcNAc(b1-6)]Man(a1-6)[Gal(b1-4)GlcNAc(b1-3)Gal(b1-4)GlcNAc(b1-2)Man(a1-3)]Man(b1-4)GlcNAc(b1-4)[Fuc(a1-6)]GlcNAc", "how_it_was_run": "as §1"}, "[8]": {"molecular_target": "Gal(b1-4)GlcNAc(b1-3)Gal(b1-4)GlcNAc(b1-3)Gal(b1-4)GlcNAc", "how_it_was_run": "as §1"}, "[9]": {"molecular_target": "Gal(b1-4)GlcNAc(b1-3)Gal(b1-4)GlcNAc(b1-3)Gal(b1-4)GlcNAc(b1-2)Man(a1-3)[Gal(b1-4)GlcNAc(b1-3)Gal(b1-4)GlcNAc(b1-3)Gal(b1-4)GlcNAc(b1-2)Man(a1-6)]Man(b1-4)GlcNAc(b1-4)GlcNAc", "how_it_was_run": "as §1"}, "[10]": {"molecular_target": "Gal(b1-4)GlcNAc(b1-3)Gal(b1-4)GlcNAc(b1-3)Gal(b1-4)GlcNAc(b1-2)Man(a1-3)[Gal(b1-4)GlcNAc(b1-3)Gal(b1-4)GlcNAc(b1-3)Gal(b1-4)GlcNAc(b1-2)Man(a1-6)]Man(b1-4)GlcNAc(b1-4)[Fuc(a1-6)]GlcNAc", "how_it_was_run": "as §1"}, "[11]": {"molecular_target": "Gal(b1-4)GlcNAc(b1-3)Gal(b1-4)GlcNAc(b1-3)Gal(b1-4)GlcNAc(b1-2)[Gal(b1-4)GlcNAc(b1-3)Gal(b1-4)GlcNAc(b1-3)Gal(b1-4)GlcNAc(b1-6)]Man(a1-6)[Gal(b1-4)GlcNAc(b1-3)Gal(b1-4)GlcNAc(b1-3)Gal(b1-4)GlcNAc(b1-2)Man(a1-3)]Man(b1-4)GlcNAc(b1-4)[Fuc(a1-6)]GlcNAc", "how_it_was_run": "as §1"}, "[12]": {"molecular_target": "Gal(b1-4)GlcNAc(b1-3)Gal(b1-4)GlcNAc(b1-3)Gal(b1-4)GlcNAc(b1-3)Gal(b1-4)GlcNAc(b1-2)Man(a1-3)[Gal(b1-4)GlcNAc(b1-3)Gal(b1-4)GlcNAc(b1-3)Gal(b1-4)GlcNAc(b1-3)Gal(b1-4)GlcNAc(b1-2)Man(a1-6)]Man(b1-4)GlcNAc(b1-4)GlcNAc", "how_it_was_run": "as §1"}, "[13]": {"molecular_target": "Gal(b1-4)GlcNAc(b1-3)Gal(b1-4)GlcNAc(b1-3)Gal(b1-4)GlcNAc(b1-3)Gal(b1-4)GlcNAc(b1-2)Man(a1-3)[Gal(b1-4)GlcNAc(b1-3)Gal(b1-4)GlcNAc(b1-3)Gal(b1-4)GlcNAc(b1-3)Gal(b1-4)GlcNAc(b1-2)Man(a1-6)]Man(b1-4)GlcNAc(b1-4)[Fuc(a1-6)]GlcNAc", "how_it_was_run": "as §1"}, "[14]": {"molecular_target": "Gal(b1-4)GlcNAc(b1-3)Gal(b1-4)GlcNAc(b1-3)Gal(b1-4)GlcNAc(b1-3)Gal(b1-4)GlcNAc(b1-2)[Gal(b1-4)GlcNAc(b1-3)Gal(b1-4)GlcNAc(b1-3)Gal(b1-4)GlcNAc(b1-3)Gal(b1-4)GlcNAc(b1-6)]Man(a1-6)[Gal(b1-4)GlcNAc(b1-3)Gal(b1-4)GlcNAc(b1-3)Gal(b1-4)GlcNAc(b1-3)Gal(b1-4)GlcNAc(b1-2)Man(a1-3)]Man(b1-4)GlcNAc(b1-4)[Fuc(a1-6)]GlcNAc", "how_it_was_run": "as §1"}, "[15]": {"molecular_target": "Gal(b1-4)GlcNAc(b1-3)Gal(b1-4)GlcNAc(b1-3)Gal(b1-4)GlcNAc(b1-3)Gal(b1-4)GlcNAc(b1-3)Gal(b1-4)GlcNAc(b1-2)Man(a1-3)[Gal(b1-4)GlcNAc(b1-3)Gal(b1-4)GlcNAc(b1-3)Gal(b1-4)GlcNAc(b1-3)Gal(b1-4)GlcNAc(b1-3)Gal(b1-4)GlcNAc(b1-2)Man(a1-6)]Man(b1-4)GlcNAc(b1-4)GlcNAc", "how_it_was_run": "as §1"}, "[16]": {"molecular_target": "Gal(b1-4)GlcNAc(b1-3)Gal(b1-4)GlcNAc(b1-3)Gal(b1-4)GlcNAc(b1-3)Gal(b1-4)GlcNAc(b1-3)Gal(b1-4)GlcNAc(b1-2)Man(a1-3)[Gal(b1-4)GlcNAc(b1-3)Gal(b1-4)GlcNAc(b1-3)Gal(b1-4)GlcNAc(b1-3)Gal(b1-4)GlcNAc(b1-3)Gal(b1-4)GlcNAc(b1-2)Man(a1-6)]Man(b1-4)GlcNAc(b1-4)[Fuc(a1-6)]GlcNAc", "how_it_was_run": "as §1"}, "[17]": {"molecular_target": "Gal(b1-4)GlcNAc(b1-3)Gal(b1-4)GlcNAc(b1-3)Gal(b1-4)GlcNAc(b1-3)Gal(b1-4)GlcNAc(b1-3)Gal(b1-4)GlcNAc(b1-2)[Gal(b1-4)GlcNAc(b1-3)Gal(b1-4)GlcNAc(b1-3)Gal(b1-4)GlcNAc(b1-3)Gal(b1-4)GlcNAc(b1-3)Gal(b1-4)GlcNAc(b1-6)]Man(a1-6)[Gal(b1-4)GlcNAc(b1-3)Gal(b1-4)GlcNAc(b1-3)Gal(b1-4)GlcNAc(b1-3)Gal(b1-4)GlcNAc(b1-3)Gal(b1-4)GlcNAc(b1-2)Man(a1-3)]Man(b1-4)GlcNAc(b1-4)[Fuc(a1-6)]GlcNAc", "how_it_was_run": "as §1"}, "[18]": {"molecular_target": "Gal(b1-4)GlcNAc(b1-3)Gal(b1-4)GlcNAc(b1-3)Gal(b1-4)GlcNAc(b1-3)Gal(b1-4)GlcNAc(b1-3)Gal(b1-4)GlcNAc(b1-3)Gal(b1-4)GlcNAc(b1-2)Man(a1-3)[Gal(b1-4)GlcNAc(b1-3)Gal(b1-4)GlcNAc(b1-3)Gal(b1-4)GlcNAc(b1-3)Gal(b1-4)GlcNAc(b1-3)Gal(b1-4)GlcNAc(b1-3)Gal(b1-4)GlcNAc(b1-2)Man(a1-6)]Man(b1-4)GlcNAc(b1-4)GlcNAc", "how_it_was_run": "as §1"}, "[19]": {"molecular_target": "Gal(b1-4)GlcNAc(b1-3)Gal(b1-4)GlcNAc(b1-3)GalNAc", "how_it_was_run": "as §1"}}, "note": "The other results are listed elsewhere or left out."}
{"binder": "B1", "values": [{"measurement": "glycan array binding signal (z-score)", "setting": "[1]", "value": -0.18}, {"measurement": "glycan array binding signal (z-score)", "setting": "[2]", "value": -0.18}, {"measurement": "glycan array binding signal (z-score)", "setting": "[3]", "value": -0.11}, {"measurement": "glycan array binding signal (z-score)", "setting": "[4]", "value": 0.171}, {"measurement": "glycan array binding signal (z-score)", "setting": "[5]", "value": 0.058}, {"measurement": "glycan array binding signal (z-score)", "setting": "[6]", "value": 0.108}, {"measurement": "glycan array binding signal (z-score)", "setting": "[7]", "value": -0.065}, {"measurement": "glycan array binding signal (z-score)", "setting": "[8]", "value": -0.241}, {"measurement": "glycan array binding signal (z-score)", "setting": "[9]", "value": 0.265}, {"measurement": "glycan array binding signal (z-score)", "setting": "[10]", "value": 0.042}, {"measurement": "glycan array binding signal (z-score)", "setting": "[11]", "value": -0.16}, {"measurement": "glycan array binding signal (z-score)", "setting": "[12]", "value": -0.025}, {"measurement": "glycan array binding signal (z-score)", "setting": "[13]", "value": 0.082}, {"measurement": "glycan array binding signal (z-score)", "setting": "[14]", "value": -0.105}, {"measurement": "glycan array binding signal (z-score)", "setting": "[15]", "value": -0.062}, {"measurement": "glycan array binding signal (z-score)", "setting": "[16]", "value": 0.33}, {"measurement": "glycan array binding signal (z-score)", "setting": "[17]", "value": -0.133}, {"measurement": "glycan array binding signal (z-score)", "setting": "[18]", "value": -0.201}, {"measurement": "glycan array binding signal (z-score)", "setting": "[19]", "value": 0.16}]}
